In PubChem BioAssay AID256 (DTP/NCI, 2004):
Inconclusive results and toxic doses are left out. Certain results were filed several times, with different values. This list holds those alone. There may be further records. Results that share an entry differ for a reason that is not stated; some may be repeats, others may stem from another dose, organism or construct than stated.

Test system: CD2F1 mice, L1210 leukemia ip, survival T/C
Experiment: NCI In Vivo Anticancer Drug Screen. Data for tumor model L1210 Leukemia (intraperitoneal) in CD2F1 (CDF1) mice
Settings: higher = longer survival
Outline: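 Ratio T/C, where T is the treated-group value and C the vehicle-dosed control value, from mice implanted with a transplantable tumor.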

## O=C1NC(=O)C2C3C=CC(C12)C1C2C(=O)NC(=O)C2C31 (stereo not given)
endpoint: median survival time, dose: 50.0 mg/kg/injection, schedule: Q01DX005 (ip), vehicle: other
  T/C: 119 % of control and 164 % of control
endpoint: median survival time, dose: 100.0 mg/kg/injection, schedule: Q01DX005 (ip), vehicle: other
  T/C: 112 % of control and 170 % of control

## Nc1ccn([C@@H]2C=C(CO)[C@@H](O)[C@H]2O)c(=O)n1
endpoint: median survival time, dose: 3.37 mg/kg/injection, schedule: Q01DX009 (oral), vehicle: saline
  T/C: 105 % of control and 150 % of control

## CC(C)NC(=O)c1ccc(N=NN(C)C)cc1
endpoint: mean survival time, dose: 50.0 mg/kg/injection, schedule: Q01DX009 (ip), vehicle: other
  T/C: 120 % of control, 121 % of control, 154 % of control

## CC1(C)N=C(N)N=C(N)N1c1ccc(CCCCc2ccc(S(=O)(=O)F)cc2Cl)c(Cl)c1
endpoint: mean survival time, dose: 75.0 mg/kg/injection, schedule: Q01DX009 (ip), vehicle: saline with Tween-80
  T/C: 105 % of control and 156 % of control
